Reference: publication PMC3763533
These are yes or no findings as the source states them, for the method shown. Binding seen in cells or lysates may run through a third protein. Some binding calls cover weakened binding; strength is not graded here. Sequences can lack the tags named with a protein.

Chains of the proteins cited; added tags and fusions are not shown. Lines headed by an entry give the natural chain unless they say otherwise; changes in a name come on top.
UniProt P17844: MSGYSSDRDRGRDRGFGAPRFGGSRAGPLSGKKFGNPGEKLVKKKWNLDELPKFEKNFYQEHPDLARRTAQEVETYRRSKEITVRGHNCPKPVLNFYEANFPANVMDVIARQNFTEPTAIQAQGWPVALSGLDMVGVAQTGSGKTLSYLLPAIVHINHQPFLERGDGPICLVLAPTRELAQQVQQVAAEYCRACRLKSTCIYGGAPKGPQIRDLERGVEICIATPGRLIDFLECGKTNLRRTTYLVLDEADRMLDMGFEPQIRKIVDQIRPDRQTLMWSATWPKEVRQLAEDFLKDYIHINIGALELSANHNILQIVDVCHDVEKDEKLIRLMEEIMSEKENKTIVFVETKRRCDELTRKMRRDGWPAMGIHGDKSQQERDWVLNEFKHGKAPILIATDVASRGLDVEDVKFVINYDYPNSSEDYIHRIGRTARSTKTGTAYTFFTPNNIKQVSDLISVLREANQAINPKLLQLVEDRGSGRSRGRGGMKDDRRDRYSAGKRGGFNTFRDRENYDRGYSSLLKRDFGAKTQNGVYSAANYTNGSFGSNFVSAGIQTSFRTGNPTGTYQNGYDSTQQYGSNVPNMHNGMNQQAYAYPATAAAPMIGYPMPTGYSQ
UniProt Q92841: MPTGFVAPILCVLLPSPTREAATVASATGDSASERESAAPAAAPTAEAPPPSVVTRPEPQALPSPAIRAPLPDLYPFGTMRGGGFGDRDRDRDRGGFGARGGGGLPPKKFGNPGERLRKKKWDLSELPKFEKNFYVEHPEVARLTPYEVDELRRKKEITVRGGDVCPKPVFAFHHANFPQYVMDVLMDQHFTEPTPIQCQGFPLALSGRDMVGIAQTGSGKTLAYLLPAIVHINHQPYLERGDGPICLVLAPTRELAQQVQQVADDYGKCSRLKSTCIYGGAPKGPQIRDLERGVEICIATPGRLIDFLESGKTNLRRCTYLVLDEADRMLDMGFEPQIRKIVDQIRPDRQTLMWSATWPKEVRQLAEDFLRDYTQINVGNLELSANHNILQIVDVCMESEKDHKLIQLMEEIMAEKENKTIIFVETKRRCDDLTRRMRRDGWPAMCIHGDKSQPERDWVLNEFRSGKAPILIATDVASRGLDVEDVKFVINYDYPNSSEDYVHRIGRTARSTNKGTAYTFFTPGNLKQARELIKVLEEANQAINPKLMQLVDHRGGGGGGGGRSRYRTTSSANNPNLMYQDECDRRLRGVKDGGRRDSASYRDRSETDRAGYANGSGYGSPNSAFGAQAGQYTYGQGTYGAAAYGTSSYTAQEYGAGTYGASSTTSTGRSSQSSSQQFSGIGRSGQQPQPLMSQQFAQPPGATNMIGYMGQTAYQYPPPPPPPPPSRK

Tests used:
[1] = target: T1, FLAG-tagged hUpf3B (human) (UniProt Q9BZI7); assay: co-IP; HeLa cells transfected 48 h with FLAG-Upf3B or a deletion mutant, lysed in the presence of RNase A, anti-FLAG antibodies; western blot
T1 sequence: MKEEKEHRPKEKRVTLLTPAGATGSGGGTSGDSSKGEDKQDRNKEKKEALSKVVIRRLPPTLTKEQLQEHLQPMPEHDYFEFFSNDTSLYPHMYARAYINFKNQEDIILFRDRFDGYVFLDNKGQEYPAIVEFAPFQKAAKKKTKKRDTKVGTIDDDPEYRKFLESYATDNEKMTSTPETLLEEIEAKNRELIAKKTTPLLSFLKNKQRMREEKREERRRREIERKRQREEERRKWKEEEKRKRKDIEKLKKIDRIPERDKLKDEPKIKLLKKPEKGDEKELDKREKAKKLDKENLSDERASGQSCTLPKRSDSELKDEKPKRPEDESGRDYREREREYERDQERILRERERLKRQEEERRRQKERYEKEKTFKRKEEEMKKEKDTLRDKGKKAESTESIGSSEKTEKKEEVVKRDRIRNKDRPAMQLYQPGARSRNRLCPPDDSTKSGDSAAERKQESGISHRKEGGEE

FLAG-Upf3B 1-270 (human) = target: T2, FLAG-Upf3B 1-270 (human) (UniProt Q9BZI7); assay: as above
T2 sequence: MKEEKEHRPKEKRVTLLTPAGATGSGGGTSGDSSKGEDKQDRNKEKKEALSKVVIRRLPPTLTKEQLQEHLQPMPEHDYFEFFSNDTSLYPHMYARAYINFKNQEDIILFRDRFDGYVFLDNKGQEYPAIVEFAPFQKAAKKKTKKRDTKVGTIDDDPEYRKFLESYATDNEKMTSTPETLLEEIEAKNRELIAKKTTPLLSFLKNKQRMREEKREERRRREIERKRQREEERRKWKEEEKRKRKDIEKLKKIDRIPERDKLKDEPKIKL

[2] = target: T3, FLAG-Upf3B 270-470 (human) (UniProt Q9BZI7); assay: as above
T3 sequence: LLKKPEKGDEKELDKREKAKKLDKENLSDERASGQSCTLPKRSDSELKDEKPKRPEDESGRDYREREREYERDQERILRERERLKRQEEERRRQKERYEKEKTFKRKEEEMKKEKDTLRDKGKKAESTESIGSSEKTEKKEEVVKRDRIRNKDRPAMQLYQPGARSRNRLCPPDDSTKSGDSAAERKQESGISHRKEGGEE

[3] = target: T1, FLAG-tagged hUpf3B (human); assay: pull-down; FLAG-Upf3B (bait) bound to anti-FLAG antibody on protein A-sepharose in the presence of RNase A overnight, washed; HeLa cell extracts with the KT3-tagged Ddx5 deletion mutant (prey) added for 4 h; western blot with anti-Upf3B and anti-KT3; only the target purified

With “Ddx5 (p68), endogenous (from UniProt P17844 1-614)” the binding [1] was “binds”, the binding (FLAG-Upf3B 1-270 (human)) was “no binding” and the binding [2] was “binds”.
In the case of “Ddx5-1-189-KT3 (from UniProt P17844 1-189) (domain or fragment)”, the binding [3] is reported as “binds”.
In the case of “Ddx5-190-614-KT3 (from UniProt P17844 190-614) (domain or fragment)”, the binding [3] is reported as “no binding”.
“Ddx17 (p72), endogenous (from UniProt Q92841 1-729)” was tested, and the binding [1] was “binds”.
